Two molecules from publication PMC12095048 (Oncogene, 2025) can be followed below.

Assay [1] has as its target His-CHK2 (WT), full length (UniProt O96017). Put plainly: pull-down.
The target of assay [2] is His-HIF-1α (WT), full length (UniProt Q16665 1-826). Put plainly: pull-down.

B1: GST-HIF-1α ([…]) (domain or fragment)
chain: not shown
With B1, in assay [1], the binding result is on record as “binds”.

B2: GST-CHK2 ([…]) (domain or fragment)
chain: not shown
B2: the binding result in assay [2] was “binds”.
